Among all 380,000 compounds or so, about 25 (0.007%) were called active. This list was built around the results that the source calls inconclusive (neither active nor inactive); the mix of calls is not that of the screen. Calls come from the whole dose curve; as a rule, active = well fitted activation curve with a large enough effect; inconclusive = small, poorly fitted or top-dose-only effect; inactive = no such curve, though single readings can be large or run the other way. No potency is given beside an inconclusive call; the fits are too rough.
target: Glucagon-like peptide 1 receptor (Homo sapiens) (UniProt P43220); test: qHTS of GLP-1 Receptor Agonists; conditions: HEK293 GLP-1R CRE-luciferase, luminescence, 4-6 h, cells express a hypersensitive GLP-1R form; activation: at 45.6 µM (top of the series) unless noted; for activation: % of control where 0% means no effect
Potency is the fitted concentration of half-maximal effect; tags give direction and shape of the fitted curve.

Sequence of UniProt P43220 (P43220 whole entry, looked up): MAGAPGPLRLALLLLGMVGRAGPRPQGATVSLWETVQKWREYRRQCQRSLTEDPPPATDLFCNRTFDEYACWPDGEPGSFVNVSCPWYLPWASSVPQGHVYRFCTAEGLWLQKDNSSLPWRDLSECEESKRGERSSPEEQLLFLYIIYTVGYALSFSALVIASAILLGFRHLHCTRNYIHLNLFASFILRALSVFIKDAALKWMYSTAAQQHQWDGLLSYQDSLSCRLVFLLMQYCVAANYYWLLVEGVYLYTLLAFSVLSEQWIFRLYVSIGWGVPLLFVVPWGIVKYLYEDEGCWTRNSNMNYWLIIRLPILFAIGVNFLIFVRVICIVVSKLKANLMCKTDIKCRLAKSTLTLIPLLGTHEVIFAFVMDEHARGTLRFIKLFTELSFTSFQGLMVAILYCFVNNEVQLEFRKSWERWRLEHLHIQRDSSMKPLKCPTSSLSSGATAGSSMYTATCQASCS

SMILES	Potency	activation
C=CCOc1nc2c(c(=O)n(C)c(=O)n2C)n1Cc1ccccc1Cl	inconclusive [activator, single point]	
O=C(OCc1c(-c2ccccc2)ncc2ccccc12)c1cccs1	inconclusive [activator, single point]	
O=C(CSc1ccccc1[N+](=O)[O-])NC1CCS(=O)(=O)C1 (configuration not stated)		inconclusive: 34.1% [activator]
Cc1cccc(-c2c3c(=O)n(C)c(=O)n(C)c3cn2C(C)C)c1	inconclusive [activator, partial curve]	
COc1cc2c(cc1OC)/C(=C/C(=O)c1ccccc1)NCC2	inconclusive [activator, partial curve]	
Cc1ccc(S(=O)(=O)N2CCCC(C(=O)NCCc3ccccc3)C2)cc1 (configuration not stated)	inactive	
COc1ccc(CN(C)Cc2cc(=O)oc3cc(C)c(C(C)C)cc23)cc1OC	inconclusive [activator, partial curve, poor fit]	
O=[N+]([O-])c1ccc(O)c2cccnc12	inactive	
COc1ccccc1-c1cc(C(=O)Nc2cccnc2)no1	inconclusive [activator, partial curve, poor fit]	
NCc1csc(Nc2ncccn2)n1	inactive	
S=C(Nc1ccccc1)Nc1nc2ccccc2n1CCOc1ccccc1	inconclusive [activator, single point]	
OCCN1c2ccccc2CCc2ccccc21	inactive	
O=C(NN1C(=O)c2cc(Br)ccc2NC1c1cc(Br)cc(Br)c1O)c1ccncc1 (configuration not stated)	inactive	
O=C(CSc1nnc(-c2cnccn2)n1Cc1ccco1)c1ccccc1	inconclusive [activator, partial curve, poor fit]	
CC(=O)Nc1cccc(-c2nnc(SCC(=O)c3cc([N+](=O)[O-])ccc3Cl)o2)c1	inactive	
COc1ccc(CNC(=O)CN2CCC(NC(=O)c3ccccc3C)CC2)cc1		inconclusive: 49.6% [activator]
COc1ccc(OC)c(NC(=O)C2(C)CCN2Cc2ccccc2Cl)c1 (configuration not stated)	inconclusive [activator, partial curve, poor fit]	
O=C(O)CCc1nc2cc3ccccc3cc2[nH]1		inconclusive: 51.7% [activator]
CC(C)Cn1c(N)c(C(=O)NCCN2CCOCC2)c2nc3ccccc3nc21	inactive	
COC(=O)c1ccc2c(=O)[nH]c(COC(=O)c3[nH]c(C)c(C(C)=O)c3C)nc2c1		inconclusive: 39.8% [activator]
Cc1cc(C(=O)N/N=C/c2cccc3ccccc23)c(C)o1	inconclusive [activator, single point]	
CN1CCN(c2nc(NCCOC34CC5CC(CC(C5)C3)C4)nc(OCC(F)(F)F)n2)CC1	inactive	
COc1ccc(OCCSc2nc(C)nc3ccccc23)cc1	inconclusive [activator, partial curve, poor fit]	
COc1ccc(NC(=O)CSc2ccc(-c3cccs3)nn2)c(OC)c1	inconclusive [activator, full curve, poor fit]	

SMILES	Potency	activation
CC(=O)COc1ccc2c3c(c(=O)oc2c1C)CCCCC3	inconclusive [activator, full curve, poor fit]	
O=C(O)c1ccccc1NS(=O)(=O)c1cccc(C(F)(F)F)c1	inconclusive [activator, partial curve, poor fit]	
N#CC1=C(N)Oc2c(ccc3cccnc23)C1c1ccccc1 (configuration not stated)	inactive	
CCc1ccc(NC(=O)C2CCCN(S(=O)(=O)c3ccc4[nH]c(=O)ccc4c3)C2)cc1 (configuration not stated)	inactive	
O=C(COc1ccccc1[N+](=O)[O-])Nc1ccc(NC(=O)c2cc3ccccc3o2)cc1	inactive	
CN(CCOc1ccccc1)CC(=O)Nc1ccc(Cl)cc1[N+](=O)[O-]	inconclusive [activator, single point]	
c1ccc(-c2cc(N3CCCCC3)ncn2)cc1	inconclusive [activator, partial curve, poor fit]	
CCCOc1ccc2c3c(c(=O)oc2c1OCCC)CCC3	inconclusive [activator, single point]	
N/C(=N\OC(=O)c1ccc2ccccc2c1)c1ccncc1	inactive	
Cc1ccc(-c2noc(C3CCCN(C(=O)c4ccc(Cl)cc4)C3)n2)o1 (configuration not stated)	inactive	
COc1ccc(Cl)cc1C(=O)CSc1nnnn1C1CCCCC1	inconclusive [activator, partial curve, poor fit]	
COc1cc(-c2noc(C)c2/C=C/c2ccc(N)cc2)cc(OC)c1OC	inconclusive [activator, partial curve]	
CC(C)(C)c1cc2cccnc2n1Cc1ccccc1	inconclusive [activator, partial curve]	
COc1cc(CN2CCN(C(c3ccccc3)c3ccccc3)CC2)cc(OC)c1OC	inactive	
c1cc2c(cc1C1=Nn3c(nnc3C3CCCCC3)SC1)OCO2		inconclusive: 63.6% [activator]
CC1CCc2c(sc3ncnc(N4CCOCC4)c23)C1 (configuration not stated)	inactive	
COc1ccc(-c2cc(C(=O)NCc3ccco3)no2)cc1OC	inconclusive [activator, single point]	
Cc1cc(C)n2ncc(C(=O)NCc3ccccc3)c2n1	inconclusive [activator, partial curve, poor fit]	
CCCCOC(=O)c1sc2nc(C)cc(C)c2c1N	inconclusive [activator, partial curve, poor fit]	
Cc1cnc(C(=O)Nc2ccc(N3CCCCC3)cc2)cn1	inconclusive [activator, partial curve]	
CCCc1nc(Nc2nc3ccccc3o2)nc(C)c1C(=O)OCC	inconclusive [activator, full curve, poor fit]	
CCOC(=O)c1cnc2ccc(OCC)cc2c1N(C)Cc1ccccc1	inconclusive [activator, single point]	
Cc1sc2nc(CSc3ccccc3)nc(N3CCOCC3)c2c1C	inconclusive [activator, partial curve, poor fit]	
COc1ccc(C2=Nn3c(nnc3-c3ccccc3)SC2)cc1OC	inconclusive [activator, full curve, poor fit]	

SMILES	Potency	activation
O=c1c2c3c(sc2nc2n1CCC2)CCCCC3		inconclusive: 57.4% [activator]
COc1ccc(CSc2nnc3[nH]c(=O)cc(N)n23)cc1	inconclusive [activator, single point]	
CCOC(=O)N1CCC(NC(=O)c2ccc3c(c2)N=C(C)c2ccccc2S3)CC1	inactive	
COCCNc1nc(-c2cc(C)c(C)cc2C)cs1	inactive	
COc1ccc(CNC(c2ccccc2)c2ccc(Cl)cc2)cc1 (configuration not stated)	inactive	
COc1ccc(C2=Nn3c(nnc3-c3ccccc3Cl)SC2)cc1OC1CCOC1 (configuration not stated)	inconclusive [activator, full curve]	
CNC(=O)C1CC(=O)N(Cc2ccc(OC)c(OC)c2)C(=Nc2ccc(OC)cc2)S1 (configuration not stated)	inconclusive [activator, partial curve, poor fit]	
COc1ccc([C@H]2CC(=O)C=C(c3ccc(SC)cc3)C2)cc1OC	inactive	
C=C(C)CSc1nc2c(c(=O)[nH]c(=O)n2C)n1Cc1ccccc1	inconclusive [activator, partial curve, poor fit]	
O=C(c1ccccc1)N1CCCC(c2ccc(Cl)cc2)=N1	inconclusive [activator, single point]	
COc1cc(C(=O)NC2CCN(C)CC2)ccc1Nc1ncc2c(n1)N(Cc1ccccc1)CCC(=O)N2C	inconclusive [activator, partial curve, poor fit]	
COc1ccc(C2=Nn3c(nnc3-c3ccc(OC)cc3)SC2)cc1	inconclusive [activator, full curve]	
Cc1cccc(NC(=O)CSc2ncnc3sc(C)cc23)c1	inconclusive [activator, partial curve, poor fit]	
CN(Cc1nc(-c2cccnc2)no1)S(=O)(=O)c1ccc(Br)cc1	inactive	
CC(=O)NC(=S)Nc1ccc(NC(=O)COc2ccc(Cl)cc2Cl)cc1	inactive	
Cc1ccc(C)c(OCCOCCN2CCOCC2)c1	inconclusive [activator, partial curve, poor fit]	
Nc1nc2ccc(Cc3ccncc3)cc2s1	inconclusive [activator, single point]	
Cc1csc2nc(-c3cccc(NC(=O)c4c(F)cccc4F)c3)cn12	inactive	
CCc1nc(SCC(=O)NCc2ccco2)c2c(=O)n(C)c(=O)n(C)c2n1	inactive	
Cc1ccc(/C=C/C(=O)N2CCc3ccccc3C2)cc1	inconclusive [activator, full curve, poor fit]	
COc1ccc(/C=N/NC(=O)c2ccccc2NC(=O)c2ccco2)c(OC)c1	inconclusive [activator, single point]	
O=C(c1nc(-c2ccccc2)n(-c2ccccc2)n1)N1CCCCCC1	inactive	
COc1cc(/C=N/NC(=O)c2cc(-c3ccccc3)sc2N)cc(OC)c1OC	inconclusive [activator, partial curve, poor fit]	
Nc1nc(SCc2ccccc2)cc(SCc2ccccc2)n1	inconclusive [activator, partial curve]	
